# Out of some 310,000 compounds screened, about 18,000 (5.8%) were called active. The shares of active, inactive and inconclusive entries below differ from those in the screen. The call rests on the fitted dose curve; in most records, active means well fitted inhibition curve with a large enough effect; inconclusive means small, poorly fitted or top-dose-only effect, or another doubt; inactive means no such curve, though single readings can be large or run the other way. Potencies of inconclusive entries are left out as doubtful fits.
# Assay: Primary qHTS for delayed death inhibitors of the malarial parasite plastid, 48 hour incubation
# Settings: P. falciparum luciferase growth in erythrocytes; series mostly up to 28.7 µM; activity change, negative = inhibition: at the top concentration
# Outline: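 Luciferase-expressing parasites in RBCs, 2% Hct / 0.1% parasitemia final; RPMI 1640 + 0.5% Albumax; 37 C, 5% CO2, one generation; luminescence read-out, lower signal = inhibition.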
# On the % scale 0 is the no-effect control and ±100 the full control effect; potency means the concentration at half of the fitted maximal effect; tags describe the fitted curve by direction and shape.
SMILES,Potency,"activity change, negative = inhibition"
CC1(C)CC(=O)C/C(=N/NC(=O)COc2ccc(Cl)cc2Cl)C1,"inconclusive [inhibitor, partial curve, poor fit]",–
COc1ccccc1/C=N/NC(=S)Nc1cccnc1,"inconclusive [inhibitor, single point]",–
CCOC(=O)C1=C(c2ccccc2)NC(=S)NC1c1ccc(C)c([N+](=O)[O-])c1 (stereo not drawn),"inconclusive [inhibitor, partial curve, poor fit]",–
CCOC(=O)c1ccc(NC(=O)NNC(=O)CCc2ccc(OC)cc2)cc1,"inconclusive [inhibitor, partial curve]",–
O=CN1CCN(C(C(=O)NC2CCCC2)c2ccc(Cl)cc2)CC1 (stereo not drawn),"inconclusive [inhibitor, single point]",–
CN(CC1CCN(CCc2cccc(C(F)(F)F)c2)CC1)C(=O)c1ccccc1,–,inactive: 4.7%
COC(=O)C1C2CC3c4[nH]c5cc(OC)ccc5c4CCN3CC2CC(OC)C1OC (stereo not drawn),"inconclusive [inhibitor, partial curve, poor fit]",–
O=C(O)c1ccccc1C(=O)OCCc1cc2ccccc2c(=O)o1,–,inactive: 19.8%
COc1ccc(C(CC(=O)N2CCN(c3ccccc3)CC2)c2c(OC)cc(OC)c3c(-c4ccccc4)cc(=O)oc23)cc1 (stereo not drawn),"inconclusive [inhibitor, full curve]",–
Oc1cc(Cc2ccccc2)cnc1CN1CCOCC1,active: 2.94 µM,–
CC[C@H]1c2[nH]c3ccccc3c2C[C@@H]2C(=O)N(c3ccc(F)cc3)C(=O)N21,"inconclusive [inhibitor, single point]",–
CCN(CC(=O)Nc1ccc(NC(C)=O)cc1)C(=O)C1CC(=O)N(Cc2ccc(C)cc2)C1 (stereo not drawn),–,inactive: 3.06%
NC(=O)c1ccc(Oc2ccc3ccc(=O)oc3c2)c([N+](=O)[O-])c1,–,inactive: 5.18%
Cc1ccc(S(=O)(=O)N(C)C)cc1NC(=O)Cn1c(CN2CCOCC2)nc2ccccc2c1=O,active: 14.7 µM,–
COc1cc(C)cc(OC)c1OCC(=O)Nc1cc(C)on1,"inconclusive [inhibitor, single point]",–
Cc1ccc(N(C(=O)CNC(=O)c2ccco2)C(C(=O)NC2CCCCC2)c2ccncc2)c(C)c1 (stereo not drawn),active: 11.7 µM,–
O=C(c1ccc(Cl)s1)N1CCCC(N2CCN(c3ccc(F)cc3)CC2)C1 (stereo not drawn),"inconclusive [inhibitor, single point]",–
CCOC(=O)c1c(C(=O)OCC)c(C)n(CCc2ccccc2)c1C,"inconclusive [inhibitor, partial curve]",–
